Source: patent publication US7488491B2, “Use of glycosylceramides as adjuvants for vaccines against infections and cancer” (New York University, priority 2001, dated 2009)

Tests used:
[1] = tested on: p18-specific CD8+ T cells (p18 protein of HIV); test: ELISPOT assay of HIV p18-specific CD8+ T cells from immunized mice; details: BALB/c; SIN(p18) s.c. with α-GalCer
[2] = tested on: CS-specific CD4+ and CD8+ T cells (P. yoelii CS protein); test: ELISPOT assay of CS-specific CD4+ and CD8+ T cells from immunized mice
P. yoelii sporozoites = test: Parasite rRNA in the liver after live sporozoite challenge of immunized mice (real-time RT-PCR); details: BALB/c mice; 0.5, 1, 2 μg α-GalCer with 1×10^4 γ-spz i.v.

## CCCCCCCCCCCCCCCCCCCCCCCCCC(=O)N[C@@H](CO[C@H]1O[C@H](CO)[C@H](O)[C@H](O)[C@H]1O)[C@H](O)[C@H](O)CCCCCCCCCCCCCC [α-GalCer, (2S,3S,4R)-1—O-(α-D-galactopyranosyl)-2-(N-hexacosanoylamino)-1,3,4-octadecanetriol]
[1]
  increase in number of p18-specific IFN-γ-secreting CD8+ T cells induced by SIN(p18): 4 fold
[2]; BALB/c, 1×10^5 γ-spz with or without α-GalCer, two to six weeks
  duration of the CS-specific CD8+ T cell response: prolonged the duration
[2]; BALB/c, 1×10^5 γ-spz with α-GalCer, two weeks
  number of IFN-γ-secreting CS-specific CD4+ T cells: significantly increased
[2]; BALB/c, SIN(Mal) with α-GalCer
  number of CS-specific CD8+ T cells secreting IFN-γ, SIN(Mal): increases
[2]; BALB/c, peptide immunization
  CS-specific T cell responses, α-GalCer two days before or two days after peptide immunization: significantly enhance
[2]; BALB/c, s.c. 10 mg synthetic CD8+ or CD4+ epitope peptide, α-GalCer same time, lymph node cells, ten days
  number of CS-specific CD4+ and CD8+ T cells secreting IFN-γ, peptide-immunized mice, vs no α-GalCer: significantly higher
[2]; BALB/c, suboptimal dose AdPyCS s.c. with α-GalCer, splenocytes
  number of CS-specific CD4+ and CD8+ T cells secreting IFN-γ vs virus alone, AdPyCS: more than 10 fold
[2]; CD1d-deficient mice, γ-spz with α-GalCer
  number of CS-specific CD8+ T cells in CD1d-deficient mice vs untreated: failed to increase
[2]; IFN-γR-/- mice, γ-spz with α-GalCer, ten days
  number of CS-specific IFN-γ-secreting CD8+ and CD4+ T cells in IFN-γ receptor-deficient mice: failed to augment
[2]; α-GalCer-treated mice
  level of CS-specific T cell responses at six weeks after γ-spz immunization vs non-treated mice: remained much higher
[2]; γ-spz immunization
  enhancement of T cell responses, α-GalCer two days prior to or two days after γ-spz: not observed
[2]; γ-spz immunization with α-GalCer
  increase in number of IFN-γ-secreting CS-specific CD4+ T cells vs γ-spz alone: approximately 5 fold
[2]; γ-spz with or without α-GalCer
  numbers of CS-specific CD4+ or CD8+ T cells secreting IL-4: No difference
P. yoelii sporozoites
  level of protective immunity (% inhibition of the liver stage development) elicited by γ-spz: significantly enhanced, in a dose-dependent manner
